The values below come from article PMC5681660, “Reduced hepatitis B and D viral entry using clinically applied drugs as novel inhibitors of the bile acid transporter NTCP” (Scientific Reports, 2017).

Test [1] addresses T1, human NTCP (Homo sapiens, UniProt Q14973).
T1 sequence (Q14973 1-349): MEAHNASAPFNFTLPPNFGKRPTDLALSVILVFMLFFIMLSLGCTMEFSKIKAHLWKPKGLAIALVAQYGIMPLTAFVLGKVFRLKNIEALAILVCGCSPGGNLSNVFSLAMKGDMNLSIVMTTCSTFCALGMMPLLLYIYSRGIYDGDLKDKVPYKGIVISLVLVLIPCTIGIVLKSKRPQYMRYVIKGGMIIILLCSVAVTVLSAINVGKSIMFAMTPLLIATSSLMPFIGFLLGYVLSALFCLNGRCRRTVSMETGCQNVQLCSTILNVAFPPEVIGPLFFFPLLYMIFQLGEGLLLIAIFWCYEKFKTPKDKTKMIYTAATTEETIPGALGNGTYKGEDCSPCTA
In words: Screening taurocholate uptake assay (96-well, [14C]taurocholate, 10 µM drug).

In test [2] the target is T1, human NTCP. In words: Screening fluorescent competitive Myrcludex B-FITC binding assay (96-well, 10 µM drug).
Setting [3] is: 10 min, read-out: %NTCP activity.
[4] abbreviates: Prestwick library screen, 10 µM drug, Myrcludex B-FITC binding.
[5] abbreviates: screen, 10 µM drug, [14C]taurocholate uptake.
Where [6] appears, read: screen, 10 µM drug, Myrcludex B-FITC binding.

Counter-ions that a name gives are not always drawn.

As for `COc1ccc([C@@H]2Sc3ccccc3N(CCN(C)C)C(=O)[C@@H]2OC(C)=O)cc1` [Diltiazem hydrochloride], the remaining activity at 10 µM in test [1] (setting [3]) came out at 57.3%; in test [2] (0.5 h, read-out: %NTCP binding), 89.6%.
In the case of `CN(C)CCCSC(=N)N.Cl.Cl` [Dimaprit dihydrochloride], the “%NTCP activity” value in test [1] (Prestwick library screen, 10 µM drug, [14C]taurocholate uptake) was determined as 99.1906%. For the same molecule, the “%NTCP binding” value in test [2] (setting [4]) is listed as 113.568%.
For the molecule `CC1(C)OC(=O)NC1=O` [Dimethadione], the remaining activity at 10 µM in test [1] (setting [3]) is 104%; in test [2] (0.5 h, read-out: %NTCP binding), 104%.
Consider `CCCCC[C@H](O)/C=C/[C@@H]1[C@@H](C/C=C\CCCC(=O)O)[C@@H](O)C[C@H]1O` [Dinoprost trometamol], for which the remaining activity at 10 µM is 42.3% in test [1] (setting [3]) and 55% in test [2] (0.5 h, read-out: %NTCP binding).
The corresponding values for `COc1ccc(C(=O)c2ccccc2O)c(O)c1` [Dioxybenzone] are 58.8% and 99%.
As for `O=C(Nc1ccccc1)OCC(CN1CCCCC1)OC(=O)Nc1ccccc1` (stereo not drawn) [Diperodon hydrochloride], the remaining activity at 10 µM turned out to be 125% in test [1] (setting [3]) and 59.4% in test [2] (0.5 h, read-out: %NTCP binding).
In the same order, the values of `C[N+]1(C)CCC(=C(c2ccccc2)c2ccccc2)CC1` [Diphemanil methylsulfate] are 161% and 108%.
Regarding `OC(CCCN1CCCCC1)(c1ccccc1)c1ccccc1` [Diphenidol hydrochloride], the remaining activity at 10 µM was 30.5% in test [1] (setting [3]) and 91.5% in test [2] (0.5 h, read-out: %NTCP binding).
As for `CNCC(O)c1ccc(OC(=O)C(C)(C)C)c(OC(=O)C(C)(C)C)c1` (stereo not drawn) [Dipivefrin hydrochloride], the remaining activity at 10 µM in test [1] (setting [3]) worked out at 118%; in test [2] (0.5 h, read-out: %NTCP binding), 83.3%.
In the same order, the values of `Cn1c(=O)c2c(ncn2CC(O)CO)n(C)c1=O` (stereo not drawn) [Diprophylline] are 148% and 110%.
In the same order, the values of `OCCN(CCO)c1nc(N2CCCCC2)c2nc(N(CCO)CCO)nc(N3CCCCC3)c2n1` [Dipyridamole] are 59.6% and 90.2%.
With `Cc1c(N(C)CS(=O)(=O)[O-])c(=O)n(-c2ccccc2)n1C.[Na+]` [Dipyrone], the “%NTCP activity” value in test [1] (setting [5]) is on record as 118.042%. Besides, the “%NTCP binding” value in test [2] (setting [6]) worked out at 64.6399%.
As for `CC[C@H]1OC(=O)[C@H](C)[C@@H](O[C@H]2C[C@@](C)(OC)[C@@H](O)[C@H](C)O2)[C@H](C)[C@@H](O[C@@H]2O[C@H](C)C[C@H](N(C)C)[C@H]2O)[C@](C)(O)C[C@@H](C)[C@@H]2N[C@@H](COCCOC)O[C@H]([C@H]2C)[C@]1(C)O` [Dirithromycin], the remaining activity at 10 µM in test [1] (setting [3]) turned out to be 69.7%; in test [2] (0.5 h, read-out: %NTCP binding), 74.8%.
For the molecule `CC(C)N(CCC(C(N)=O)(c1ccccc1)c1ccccn1)C(C)C` (stereo not drawn) [Disopyramide], the remaining activity at 10 µM was determined as 40.2% in test [1] (setting [3]) and 75% in test [2] (0.5 h, read-out: %NTCP binding, Prestwick library screen, 10 µM drug, Myrcludex B-FITC binding).
For the molecule `CC(CCc1ccc(O)cc1)NCCc1ccc(O)c(O)c1` (stereo not drawn) [Dobutamine hydrochloride], the remaining activity at 10 µM in test [1] (setting [3]) amounted to 70.4%; in test [2] (0.5 h, read-out: %NTCP binding), 91%.
As to `CCN[C@H]1C[C@H](C)S(=O)(=O)c2sc(S(N)(=O)=O)cc21` [Dorzolamide hydrochloride], the remaining activity at 10 µM in test [1] (setting [3]) is 87.8%; in test [2] (0.5 h, read-out: %NTCP binding), 90.6%.
In the same order, the values of `CN(C)CC/C=C1\c2ccccc2CSc2ccccc21` [Dosulepin hydrochloride] are 54.9% and 78.6%.
With `CCN1CC(CCN2CCOCC2)C(c2ccccc2)(c2ccccc2)C1=O.Cl` (stereo not drawn) [Doxapram hydrochloride], the “%NTCP activity” value in test [1] (setting [5]) came out at 88.896%. The “%NTCP binding” value in test [2] (setting [6]) is on record as 83.6716%.
Consider `COc1cc2nc(N3CCN(C(=O)C4COc5ccccc5O4)CC3)nc(N)c2cc1OC` (stereo not drawn) [Doxazosin mesylate], for which the remaining activity at 10 µM in test [1] (setting [3]) was 111%; in test [2] (0.5 h, read-out: %NTCP binding), 86.9%.
The corresponding values for `CN(C)CCC=C1c2ccccc2COc2ccccc21` [Doxepin hydrochloride] are 65.2% and 87.6%.
The corresponding values for `Cn1c(=O)c2c(ncn2CC2OCCO2)n(C)c1=O` [Doxofylline] are 133% and 80.7%.
In the same order, the values of `COc1cccc2c1C(=O)c1c(O)c3c(c(O)c1C2=O)C[C@@](O)(C(=O)CO)C[C@@H]3O[C@H]1C[C@H](N)[C@H](O)[C@H](C)O1` [Doxorubicin hydrochloride] are 55.8% and 67.7%.
Take `C[C@H]1c2cccc(O)c2C(=O)C2=C(O)[C@]3(O)C(=O)C(C(N)=O)=C(O)[C@@H](N(C)C)[C@@H]3[C@@H](O)[C@@H]21` [Doxycycline hydrochloride]: the remaining activity at 10 µM was determined as 93.1% in test [1] (setting [3]) and 76.3% in test [2] (0.5 h, read-out: %NTCP binding).
In the same order, the values of `CN(C)CCOC(C)(c1ccccc1)c1ccccn1` (stereo not drawn) [Doxylamine succinate] are 94.8% and 104%.
The corresponding values for `CCN(CC)CCOC(=O)C(c1ccccc1)C1CCCCC1` (stereo not drawn) [Drofenine hydrochloride] are 106% and 88.6%.
In the same order, the values of `O=C(CCCN1CC=C(n2c(=O)[nH]c3ccccc32)CC1)c1ccc(F)cc1` [Droperidol] are 48.7% and 68.3%.
`CCCCOc1ccc(C(=O)CCN2CCCCC2)cc1` [Dyclonine hydrochloride]: the remaining activity at 10 µM is 29.4% in test [1] (setting [3]) and 81.3% in test [2] (0.5 h, read-out: %NTCP binding).
The corresponding values for `CC(=O)[C@H]1CC[C@H]2[C@@H]3C=CC4=CC(=O)CC[C@@]4(C)[C@@H]3CC[C@]12C` [Dydrogesterone] are 97.9% and 84.5%.
Consider `CC[N+](C)(C)c1cccc(O)c1` [Edrophonium chloride], for which the remaining activity at 10 µM is 43.8% in test [1] (setting [3]) and 85.7% in test [2] (0.5 h, read-out: %NTCP binding).
In the same order, the values of `CCOCCn1c(N2CCCN(C)CC2)nc2ccccc21` [Emedastine] are 97.6% and 86.1%.
As for `CCOC(=O)[C@H](CCc1ccccc1)N[C@@H](C)C(=O)N1CCC[C@H]1C(=O)O` [Enalapril maleate], the remaining activity at 10 µM came out at 52.5% in test [1] (setting [3]) and 71% in test [2] (0.5 h, read-out: %NTCP binding).
`C[C@H](N[C@@H](CCc1ccccc1)C(=O)O)C(=O)N1CCC[C@H]1C(=O)O.O.O` [Enalaprilat dihydrate]: the “%NTCP activity” value in test [1] (Prestwick library screen, [14C]taurocholate uptake, 10 µM drug) is reported as 100.095%. In addition, the “%NTCP binding” value in test [2] (Prestwick library screen, Myrcludex B-FITC binding, 10 µM drug) is listed as 43.1125%.
In the case of `CCn1cc(C(=O)O)c(=O)c2cc(F)c(N3CCNCC3)nc21` [Enoxacin], the remaining activity at 10 µM in test [1] (setting [3]) was 105%; in test [2] (0.5 h, read-out: %NTCP binding) it was 106%.
The corresponding values for `CCN1CCN(c2cc3c(cc2F)c(=O)c(C(=O)O)cn3C2CC2)CC1` [Enrofloxacin] are 87.1% and 88.8%.
On to `CCN(CC)C(=O)/C(C#N)=C/c1cc(O)c(O)c([N+](=O)[O-])c1` [Entacapone], for which the remaining activity at 10 µM in test [1] (setting [3]) is 116%; in test [2] (0.5 h, read-out: %NTCP binding) it was 76.3%.
In the same order, the values of `COc1cccc2c1C(=O)c1c(O)c3c(c(O)c1C2=O)C[C@@](O)(C(=O)CO)C[C@@H]3O[C@H]1C[C@H](N)[C@@H](O)[C@H](C)O1` [Epirubicin hydrochloride] are 87.9% and 78.6%.
For the molecule `C[C@]12C[C@H]3S[C@H]3C[C@@H]1CC[C@@H]1[C@@H]2CC[C@]2(C)[C@@H](O)CC[C@@H]12` [Epitiostanol], the remaining activity at 10 µM was 80.5% in test [1] (setting [3]) and 113% in test [2] (0.5 h, read-out: %NTCP binding).
In the same order, the values of `CC[C@H]1OC(=O)[C@H](C)[C@@H](O[C@H]2C[C@@](C)(OC)[C@@H](O)[C@H](C)O2)[C@H](C)[C@@H](O[C@@H]2O[C@H](C)C[C@H](N(C)C)[C@H]2O)[C@](C)(O)C[C@@H](C)C(=O)[C@H](C)[C@@H](O)[C@]1(C)O` [Erythromycin] are 113% and 86.9%.
For the molecule `CN(C)CCC[C@@]1(c2ccc(F)cc2)OCc2cc(C#N)ccc21` [Escitalopram oxalate], the remaining activity at 10 µM worked out at 108% in test [1] (setting [3]) and 78.2% in test [2] (0.5 h, read-out: %NTCP binding).
In the case of `COC(=O)CCc1ccc(OCC(O)CNC(C)C)cc1` (stereo not drawn) [Esmolol hydrochloride], the remaining activity at 10 µM in test [1] (setting [3]) was 75.4%; in test [2] (0.5 h, read-out: %NTCP binding) it was 97.4%.
In the same order, the values of `CCCCC(=O)O[C@H]1CC[C@H]2[C@@H]3CCc4cc(O)ccc4[C@H]3CC[C@]12C` [Estradiol Valerate] are 117% and 100%.
The corresponding values for `C[C@]12CC[C@@H]3c4ccc(O)cc4CC[C@H]3[C@@H]1C[C@@H](O)[C@@H]2O` [Estriol] are 106% and 97.7%.
With `C[C@]12CC[C@@H]3c4ccc(O)cc4CC[C@H]3[C@@H]1CCC2=O` [Estrone], the remaining activity at 10 µM in test [1] (setting [3]) came out at 48.7%. Besides, the “%NTCP binding” value in test [2] (setting [4]) came to 132.106%.
Consider `O=C(Cn1ccnc1[N+](=O)[O-])NCCO` [Etanidazole], for which the remaining activity at 10 µM was 118% in test [1] (setting [3]) and 71.4% in test [2] (0.5 h, read-out: %NTCP binding).
With `C=C(CC)C(=O)c1ccc(OCC(=O)O)c(Cl)c1Cl` [Ethacrynic acid], the remaining activity at 10 µM in test [1] (setting [3]) is 48.9%; in test [2] (0.5 h, read-out: %NTCP binding), 74.3%.
